Assay results reported in the supplement of paper PMC11417369.
± gives the standard deviation of the averaged measurements. The list shows a part of the results.

Each sequence was assayed on PfAP2-EXP AP2 domain (GST-tagged) (assay: gcPBM binding intensity (ln(normalized median fluorescence intensity)); higher = stronger DNA binding).
Procedure, shortened: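 Probes on an Agilent 4 × 180k array were primer-extended, double-stranded and 36 bp long, taken from intergenic genomic regions, with negative controls added. GST-tagged P. falciparum DNA-binding domains from E. coli, about 25 μg on average, were applied to the array for 1 h in 1× PBS containing 1% milk, 0.2 mg/ml BSA, 0.5% salmon testes DNA and 0.03% Triton X-100. Binding intensity, obtained after Alexa488 anti-GST antibody detection and a 488 nm scan, is the highest Masliner-normalised natural-log median intensity across replicate spots of either probe orientation.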

Sequence	gcPBM binding intensity (ln)
TCTATTTATATGTATTGTACAATATAGATGTGTATT [XGTACX_site5646]	8.67 ± 0.42
TTATATTTATATTTATGTACATATTTTGTGTGAAAA [XGTACX_site2367]	8.84 ± 0.4
AGTGTATATAGAAACATACACACATATTAATTTTAC [CACACA_site3127]	8.3 ± 0.28
TAGCTGTTCAAAAAATGTACATATATAATATATATA [XGTACX_site5842]	8.665 ± 0.078
ATATATATGCATTCAAGTACAAAAATATATGTTAAA [XGTACX_site910]	8.73 ± 0.57
TTCTATATATAATATTGTACTTAATTATTTTATTTT [XGTACX_site2701]	8.41 ± 0.28
GTAATACACAGACACACACACATACACATATTTATA [CACACA_site7313]	8.72 ± 0.48
AAATTAAAAATAATTACACACATAGAAAAATTATAT [CACACA_site2275]	8.51 ± 0.38
ACATTATAATATTATTGTACTATATATATAATATAT [XGTACX_site2291]	8.42 ± 0.34
ATATAATAACATAACACACACATGTATTTATAGGTG [CACACA_site359]	8.52 ± 0.4
GATAATCAGAATGGGGTGCAAAGAAAAAAAAAAAAA	9.04 ± 0.19
AAAAAAAAAAAAAAAACACACATATATATATAATAT [CACACA_site1159]	8.54 ± 0.3
ATATTGAAATGTTAATAGAAATATATGGTTAAATTG [XGTACX_negctrl_site212]	8.34 ± 0.34
ATAATAAGAAAAAAAAAAAAAAAAAAAAAAAAAAAA [TGCATGCA_negctrl_site377]	8.03 ± 0.4
ATGTATATAAATAGGTGTACATATAAGGTGTTAAGC [XGTACX_site5465]	9.5 ± 0.41
TACACAAACGTTATACGTACACAGGTTTTTCTTTTA [XGTACX_site5427]	8.54 ± 0.47
TTCAATAGTAAGTATACACACATATAAATAAATAAA [CACACA_site7295]	8.76 ± 0.47
AAAAAAAAAATATATTGTACAATATTGTAGCTATAT [XGTACX_site7180]	8.54 ± 0.38
TTTTTGTTATTTTTAGTGCAGAAGAATAAATTTTAA	8.4 ± 0.16

Sequence	gcPBM binding intensity (ln)
AAAATTTCTTATTTTGTACACACAATAAATATTCAC [CACACA_site8464]	8.45 ± 0.23
GCAACCTTGTGCAAATGTACAAAAAAAAAAAAAAAA [XGTACX_site679]	8.09 ± 0.26
TTTTTATTGTTGCTATATTTATAACAATTTATCATA [GTGCAC_negctrl_site75]	8.44 ± 0.35
CAATTTATAAAGAAAACACACATATACATAAATACA [CACACA_site4829]	8.82 ± 0.45
TATATATAATATAGTGCATGTAAAAAATAAACCATG [TGCATGCA_site932]	9.04 ± 0.28
TATATATATGGACACACACACATATATATATATTTT [CACACA_site5409]	8.69 ± 0.31
ACAACTATTCATCATAGTACACGCATGATATATATA [XGTACX_site1539]	8.62 ± 0.25
AAAATTAATATCTTGGTGCATTTTTTAATATTATTA [GTGCAC_site9638]	8.59 ± 0.16
TATAAATTAAAACATTGTACATTTTTATTATTATGT [XGTACX_site579]	8.29 ± 0.35
TATCTTACTTTTTGCACACACTAATATTATTGTTTA [CACACA_site4990]	9.18 ± 0.38
AACTTGTATATATACACACACACACTGTCTTTTTTT [CACACA_site1963]	9.04 ± 0.45
TTCTTTAAAATGATATACGTTATAAATATATATATA [XGTACX_negctrl_site256]	9.71 ± 0.014
AGAACTTAATGCTGCACACAAAAAAAAGGAAAAATA [CACACA_site1353]	8.51 ± 0.46
AAAAAAAAGTTGTAAGTGCATGTATATAATAATATT	8.87 ± 0.21
TGATCACATAATAAATGTACAAAAAAAAATTAATAA [XGTACX_site5867]	8.48 ± 0.46
TTTAGATAATTCATTACACACATGTATATATATATA [CACACA_site3483]	9.94 ± 0.33
TAAGGAAGAAGAAAAAGTACTAAAGGTATAAATGCG [XGTACX_site2628]	9.02 ± 0.47
TTTTATTTTTAAAATTGTACATTATTATTGTTATTT [XGTACX_site1439]	8.65 ± 0.64
TGAATATTCATATGCACACAAATTAATATACATAAT [CACACA_site442]	8.34 ± 0.33

Sequence	gcPBM binding intensity (ln)
TATTATAGTCCGACTTTTTAATTTCTTTATTGTTTT [CACACA_negctrl_site1381]	8.57 ± 0.36
TTTTATGTTTTAAAATGTACGTGTCAATGAATAAGT [XGTACX_site6239]	9.14 ± 0.25
AAATTTTAATTAGACTGTACACATTTTAGAATAATT [XGTACX_site4819]	8.3 ± 0.3
TATTTGTTCTGATCCTTTTATTCAACTTTTTTTTTT [CACACA_negctrl_site978]	8.79 ± 0.59
GGCTAAAAGTTGCACACACACAAAAAAAAAAAAAAA [CACACA_site7531]	8.47 ± 0.19
ACCTTAATTATAATAACACACGAAAAGTGGACACAT [CACACA_site1750]	9.23 ± 0.44
TATTATTATATATATAGTACATAAAATATAAAAAAA [XGTACX_site2060]	8.45 ± 0.42
ATGTCACAATTTTTCACACACAAAATTTAAATACAT [CACACA_site5168]	8.64 ± 0.42
TAATTATGCGGACACACACACACACCCAACTAAAAA [CACACA_site5427]	8.74 ± 0.42
GCATTATTATATATTTGTACATATTTTTTTTTAAAA [XGTACX_site5436]	9.01 ± 0.22
TTTTTTAAATTATATTATAGCAAATAAATATTAAAA [CACACA_negctrl_site1655]	7.95 ± 0.42
TTTTTTTTTTAAATGTGTCCTCATTATAATATATGT [XGTACX_site5331]	8.37 ± 0.49
AATAAAACATCATCATGTACAAAATTCGTCTTTGTA [XGTACX_site4821]	8.24 ± 0.41
AATTATATATAAAGAAGTACTATTTCAAGGAGTTTT [XGTACX_site3837]	8.46 ± 0.32
CAAAATATATATGACACACACAAAAAAAGTATATTA [CACACA_site1589]	8.6 ± 0.41
TCAAATTTTCAACATTGTACATAAATGTATAAATAT [XGTACX_site6042]	8.25 ± 0.35
TATTGATATATATATATATATATATGTATATACTTA [GTGCAC_negctrl_site111]	8.49 ± 0.21
TTCGCTGTTTTAATTAGTACTTATATATAATATTAT [XGTACX_site1149]	9.01 ± 0.38
CTAAACCTTTTGAGCACACATATATATATATATATA [CACACA_site1782]	10.4 ± 0.16
